According to US20260273087A1, “LINKER AND USE THEREOF IN LIGAND DRUG CONJUGATE” (priority 2023, published 2026):

Test: Plasma stability test, free drug (MMAE) release by LC-MS/MS
Format: in vitro ADME
Conditions: human plasma, 37° C.
Description: Free drugs were analyzed by LC-MS/MS.
The free drug standard was prepared as a 1 mg/mL stock solution in DMSO. The free drug stock solution was diluted in blank plasma matrix by gradient dilution to prepare a standard curve with concentrations ranging from 1.0 to 100 ng/mL, as well as QC samples at three concentration levels, namely 3.0 ng/mL (LQC), 40.0 ng/mL (MQC), and 75.0 ng/mL (HQC).
100 μL of each of the study sample, standard curve sample, and QC sample were mixed with acetonitrile. The samples were thoroughly mixed by vortex for 1 minute and centrifuged in a centrifuge at 12000 rpm for 5 minutes to precipitate proteins. The supernatant was transferred to a 96-well plate for LC-MS/MS analysis.
Data were acquired and analyzed using Chromeleon™ software.

Measured: MMAE release ratio (%)

B1: ADC-1D: "control ADC-1D"; control linker-payload conjugated with DB1001 (conjugate)
heavy: QVQLQQPGTEVVKPGASVKLSCKASGFTFPLYWMHWVRQRPGRGLEWIGRIIPIFGHTKYNEKFKNKATLTADESSSTAYMELRSLTSDDSAVYYCARGGYYYYPREGFLDYWGQGTSVTVSS[not shown - human IgG1 constant region]
light: DIVMTQSPASLSVSPGERASISCRSSQSVDYSGDSYMNWYQQKPGQSPRLLIYAASDRESGVPDRFSGSGSGTDFTLKISRVEEEDAGTYYCQQSREDPFTFGQGTKVDIKRTVAAPSVFIFPPSDEQLKSGTASVVCLLNNFYPREAKVQWKVDNALQSGNSQESVTEQDSKDSTYSLSSTLTLSKADYEKHKVYACEVTHQGLSSPVTKSFNRGEC
A (A < 1): 2 h | 8 h | 1 d | 4 d | 7 d

B2: ADC-2D: control ADC; "control linker-payload were conjugated with DB1001" (conjugate)
heavy: QVQLQQPGTEVVKPGASVKLSCKASGFTFPLYWMHWVRQRPGRGLEWIGRIIPIFGHTKYNEKFKNKATLTADESSSTAYMELRSLTSDDSAVYYCARGGYYYYPREGFLDYWGQGTSVTVSS[not shown - human IgG1 constant region]
light: DIVMTQSPASLSVSPGERASISCRSSQSVDYSGDSYMNWYQQKPGQSPRLLIYAASDRESGVPDRFSGSGSGTDFTLKISRVEEEDAGTYYCQQSREDPFTFGQGTKVDIKRTVAAPSVFIFPPSDEQLKSGTASVVCLLNNFYPREAKVQWKVDNALQSGNSQESVTEQDSKDSTYSLSSTLTLSKADYEKHKVYACEVTHQGLSSPVTKSFNRGEC
A (A < 1): 2 h | 8 h | 1 d | 4 d | 7 d
